# Measured values: patent EP1064284B1, “HYPNOTIC BETA-CARBOLINE DERIVATIVES, PROCESS FOR THEIR PREPARATION AND THEIR USE AS MEDICINAL PRODUCTS” (priority 1998, dated 1999)
# Test system: 10- to 14-day-old chicks of chair label JA657 strain
# Experiment: Hypnotic and sedative effects in chicks (IM administration)
# Settings: 0.25 µmol/100 g IM
row,Structure (SMILES),Sedation time
1,"CCC1=C2c3[nH]c4ccc(OC)cc4c3CCN2C(=O)CC1 [Example 1, 9-methoxy-1-ethyl-2,3,4,6,7,12-hexahydroindolo [2,3-a] quinolizin-4-one]",15 min
2,"COc1ccc2[nH]c3c(c2c1)CCN1C(=O)CCC(c2ccccc2)=C31 [Example 4, 9-methoxy-1-phenyl-2,3,4,6,7,12-hexahydroindolo[2,3-a] quinolizin-4-one]",17 min

# Same assay, conditions: 0.5 µmol/100 g IM
row,Structure (SMILES),Sedation time
1,"CCC1=C2c3[nH]c4ccc(OC)cc4c3CCN2C(=S)CC1 [Example 7, 9-methoxy-1-ethyl-2,3,4,6,7,12-hexahydroindolo[2,3-a] quinolizine-4-thione]",10 min
2,"COc1ccc2[nH]c3c(c2c1)CCN1C(=S)CCC(c2ccccc2)=C31 [Example 11, 9-methoxy-1-phenyl-2,3,4,6,7,12-hexahydroindolo [2,3-a] [beta]quinolizin 4-thione]",8 min
3,"CCC1=C2c3[nH]c4ccc(OC)cc4c3CCN2C(=O)CC1 [Example 1, 9-methoxy-1-ethyl-2,3,4,6,7,12-hexahydroindolo [2,3-a] quinolizin-4-one]",17 min
4,"COc1ccc2[nH]c3c(c2c1)CCN1C(=O)CCC(c2ccccc2)=C31 [Example 4, 9-methoxy-1-phenyl-2,3,4,6,7,12-hexahydroindolo[2,3-a] quinolizin-4-one]",8 min

# Same assay, conditions: 0.75 µmol/100 g IM
row,Structure (SMILES),Sedation time
1,"CCOC(=O)C1=C2c3[nH]c4ccc(OC)cc4c3CCN2C(=O)CC1 [Example 5, 1-carbethoxy-9-methoxy-2,3,4,6,7,12-hexahydroindolo[2,3-a] quinolizin-4-one]",10 min
2,"COc1ccc2[nH]c3c(c2c1)CCN1C(=O)CCC(C(C)C)=C31 [Example 3, 9-methoxy-1-isopropyl-2,3,4,6,7,12-hexahydroindolo[2,3-a] quinolizin-4-one]",1 min

# Same assay, conditions: 1 µmol/100 g IM, ranges = limit values of batch averages
row,Structure (SMILES),Sedation time
1,"COc1ccc(C2=C3c4[nH]c5ccc(OC)cc5c4CCN3C(=O)CC2)cc1 [Example 14, 9-methoxy-1-(p-methoxyphényl) -2,3,4,6,7, 12-hexahydroindolo [2,3-a]quinolizin-4-one]",29 min
2,"COc1ccc2[nH]c3c(c2c1)CCN1C(=O)CCC(c2ccccc2)C31 (stereo not drawn) [Example 19, 9-methoxy-1-phenyl-1,2,3,4,6,7,12,12b-octahydroindolo[2,3-a]quinolizin-4-one]",33 min
3,"COc1ccc2[nH]c3c(c2c1)CCN1C(=O)CCC(c2ccccn2)=C31 [Example 16, 9-methoxy-1-(pyrid-2'-yl)-2,3,4,6,7,12-hexahydroindolo [2,3-a]quinolizin-4-one]",42 min
4,"CCC1=C2c3[nH]c4ccc(OC)cc4c3CCN2C(=S)CC1 [Example 7, 9-methoxy-1-ethyl-2,3,4,6,7,12-hexahydroindolo[2,3-a] quinolizine-4-thione]",30 min
5,"COc1ccc2[nH]c3c(c2c1)CCN1C(=S)CCC(c2ccccc2)=C31 [Example 11, 9-methoxy-1-phenyl-2,3,4,6,7,12-hexahydroindolo [2,3-a] [beta]quinolizin 4-thione]",24 min
6,"COc1ccc2[nH]c3c(c2c1)CCN1C(=O)CCC(c2ccc(F)cc2)=C31 [Example 13, 9-methoxy-1-(p-fluorophenyl)-2,3,4,6,7,12-hexahydroindolo [2,3-a]quinolizin-4-one]",23 min
7,"CCC1=C2c3[nH]c4ccc(OC)cc4c3CCN2C(=O)CC1 [Example 1, 9-methoxy-1-ethyl-2,3,4,6,7,12-hexahydroindolo [2,3-a] quinolizin-4-one]",5 to 20 min
8,"COc1ccc2[nH]c3c(c2c1)CCN1C(=O)CCC(c2ccccc2)=C31 [Example 4, 9-methoxy-1-phenyl-2,3,4,6,7,12-hexahydroindolo[2,3-a] quinolizin-4-one]",22 to 32 min

# Same assay, conditions: falling-asleep time, 0.25 µmol/100 g IM
row,Structure (SMILES),FAT
1,"CCC1=C2c3[nH]c4ccc(OC)cc4c3CCN2C(=O)CC1 [Example 1, 9-methoxy-1-ethyl-2,3,4,6,7,12-hexahydroindolo [2,3-a] quinolizin-4-one]",10 min
2,"COc1ccc2[nH]c3c(c2c1)CCN1C(=O)CCC(c2ccccc2)=C31 [Example 4, 9-methoxy-1-phenyl-2,3,4,6,7,12-hexahydroindolo[2,3-a] quinolizin-4-one]",10 min

# Same assay, conditions: falling-asleep time, 0.5 µmol/100 g IM, NA = animals remained conscious, ranges = limit values of batch averages
row,Structure (SMILES),FAT
1,"CCC1=C2c3[nH]c4ccc(OC)cc4c3CCN2C(=S)CC1 [Example 7, 9-methoxy-1-ethyl-2,3,4,6,7,12-hexahydroindolo[2,3-a] quinolizine-4-thione]",8 min
2,"COc1ccc2[nH]c3c(c2c1)CCN1C(=S)CCC(c2ccccc2)=C31 [Example 11, 9-methoxy-1-phenyl-2,3,4,6,7,12-hexahydroindolo [2,3-a] [beta]quinolizin 4-thione]",9 min
3,"CCC1=C2c3[nH]c4ccc(OC)cc4c3CCN2C(=O)CC1 [Example 1, 9-methoxy-1-ethyl-2,3,4,6,7,12-hexahydroindolo [2,3-a] quinolizin-4-one]",9 min
4,"COc1ccc2[nH]c3c(c2c1)CCN1C(=O)CCC(c2ccccc2)=C31 [Example 4, 9-methoxy-1-phenyl-2,3,4,6,7,12-hexahydroindolo[2,3-a] quinolizin-4-one]",12 min

# Same assay, conditions: falling-asleep time, 0.75 µmol/100 g IM
row,Structure (SMILES),FAT
1,"CCOC(=O)C1=C2c3[nH]c4ccc(OC)cc4c3CCN2C(=O)CC1 [Example 5, 1-carbethoxy-9-methoxy-2,3,4,6,7,12-hexahydroindolo[2,3-a] quinolizin-4-one]",12 min
2,"COc1ccc2[nH]c3c(c2c1)CCN1C(=O)CCC(C(C)C)=C31 [Example 3, 9-methoxy-1-isopropyl-2,3,4,6,7,12-hexahydroindolo[2,3-a] quinolizin-4-one]",12 min

# Same assay, conditions: falling-asleep time, 1 µmol/100 g IM, NA = animals remained conscious, ranges = limit values of batch averages
row,Structure (SMILES),FAT
1,"COc1ccc(C2=C3c4[nH]c5ccc(OC)cc5c4CCN3C(=O)CC2)cc1 [Example 14, 9-methoxy-1-(p-methoxyphényl) -2,3,4,6,7, 12-hexahydroindolo [2,3-a]quinolizin-4-one]",10 min
2,"COc1ccc2[nH]c3c(c2c1)CCN1C(=O)CCC(c2ccccc2)C31 (stereo not drawn) [Example 19, 9-methoxy-1-phenyl-1,2,3,4,6,7,12,12b-octahydroindolo[2,3-a]quinolizin-4-one]",2 min
3,"COc1ccc2[nH]c3c(c2c1)CCN1C(=O)CCC(c2ccccn2)=C31 [Example 16, 9-methoxy-1-(pyrid-2'-yl)-2,3,4,6,7,12-hexahydroindolo [2,3-a]quinolizin-4-one]",6.5 min
4,"CCC1=C2c3[nH]c4ccc(OC)cc4c3CCN2C(=S)CC1 [Example 7, 9-methoxy-1-ethyl-2,3,4,6,7,12-hexahydroindolo[2,3-a] quinolizine-4-thione]",5 min
5,"COc1ccc2[nH]c3c(c2c1)CCN1C(=S)CCC(c2ccccc2)=C31 [Example 11, 9-methoxy-1-phenyl-2,3,4,6,7,12-hexahydroindolo [2,3-a] [beta]quinolizin 4-thione]",8 min
6,"COc1ccc2[nH]c3c(c2c1)CCN1C(=O)CCC(c2ccc(F)cc2)=C31 [Example 13, 9-methoxy-1-(p-fluorophenyl)-2,3,4,6,7,12-hexahydroindolo [2,3-a]quinolizin-4-one]",15 min
7,"CCC1=C2c3[nH]c4ccc(OC)cc4c3CCN2C(=O)CC1 [Example 1, 9-methoxy-1-ethyl-2,3,4,6,7,12-hexahydroindolo [2,3-a] quinolizin-4-one]",6 to 14 min
8,"COc1ccc2[nH]c3c(c2c1)CCN1C(=O)CCC(c2ccccc2)=C31 [Example 4, 9-methoxy-1-phenyl-2,3,4,6,7,12-hexahydroindolo[2,3-a] quinolizin-4-one]",13 to 15 min

# Same assay, conditions: sleep time, 0.25 µmol/100 g IM
row,Structure (SMILES),ST
1,"CCC1=C2c3[nH]c4ccc(OC)cc4c3CCN2C(=O)CC1 [Example 1, 9-methoxy-1-ethyl-2,3,4,6,7,12-hexahydroindolo [2,3-a] quinolizin-4-one]",16 min
2,"COc1ccc2[nH]c3c(c2c1)CCN1C(=O)CCC(c2ccccc2)=C31 [Example 4, 9-methoxy-1-phenyl-2,3,4,6,7,12-hexahydroindolo[2,3-a] quinolizin-4-one]",9 min

# Same assay, conditions: sleep time, 0.5 µmol/100 g IM, ranges = limit values of batch averages
row,Structure (SMILES),ST
1,"CCC1=C2c3[nH]c4ccc(OC)cc4c3CCN2C(=S)CC1 [Example 7, 9-methoxy-1-ethyl-2,3,4,6,7,12-hexahydroindolo[2,3-a] quinolizine-4-thione]",28 min
2,"COc1ccc2[nH]c3c(c2c1)CCN1C(=S)CCC(c2ccccc2)=C31 [Example 11, 9-methoxy-1-phenyl-2,3,4,6,7,12-hexahydroindolo [2,3-a] [beta]quinolizin 4-thione]",20 min
3,"CCC1=C2c3[nH]c4ccc(OC)cc4c3CCN2C(=O)CC1 [Example 1, 9-methoxy-1-ethyl-2,3,4,6,7,12-hexahydroindolo [2,3-a] quinolizin-4-one]",18 min
4,"COc1ccc2[nH]c3c(c2c1)CCN1C(=O)CCC(c2ccccc2)=C31 [Example 4, 9-methoxy-1-phenyl-2,3,4,6,7,12-hexahydroindolo[2,3-a] quinolizin-4-one]",11 min

# Same assay, conditions: sleep time, 0.75 µmol/100 g IM
row,Structure (SMILES),ST
1,"CCOC(=O)C1=C2c3[nH]c4ccc(OC)cc4c3CCN2C(=O)CC1 [Example 5, 1-carbethoxy-9-methoxy-2,3,4,6,7,12-hexahydroindolo[2,3-a] quinolizin-4-one]",10 min
2,"COc1ccc2[nH]c3c(c2c1)CCN1C(=O)CCC(C(C)C)=C31 [Example 3, 9-methoxy-1-isopropyl-2,3,4,6,7,12-hexahydroindolo[2,3-a] quinolizin-4-one]",23 min

# Same assay, conditions: sleep time, 1 µmol/100 g IM, ranges = limit values of batch averages
row,Structure (SMILES),ST
1,"COc1ccc(C2=C3c4[nH]c5ccc(OC)cc5c4CCN3C(=O)CC2)cc1 [Example 14, 9-methoxy-1-(p-methoxyphényl) -2,3,4,6,7, 12-hexahydroindolo [2,3-a]quinolizin-4-one]",15 min
2,"COc1ccc2[nH]c3c(c2c1)CCN1C(=O)CCC(c2ccccc2)C31 (stereo not drawn) [Example 19, 9-methoxy-1-phenyl-1,2,3,4,6,7,12,12b-octahydroindolo[2,3-a]quinolizin-4-one]",35 min
3,"COc1ccc2[nH]c3c(c2c1)CCN1C(=O)CCC(c2ccccn2)=C31 [Example 16, 9-methoxy-1-(pyrid-2'-yl)-2,3,4,6,7,12-hexahydroindolo [2,3-a]quinolizin-4-one]",15 min
4,"CCC1=C2c3[nH]c4ccc(OC)cc4c3CCN2C(=S)CC1 [Example 7, 9-methoxy-1-ethyl-2,3,4,6,7,12-hexahydroindolo[2,3-a] quinolizine-4-thione]",35 min
5,"COc1ccc2[nH]c3c(c2c1)CCN1C(=S)CCC(c2ccccc2)=C31 [Example 11, 9-methoxy-1-phenyl-2,3,4,6,7,12-hexahydroindolo [2,3-a] [beta]quinolizin 4-thione]",25 min
6,"COc1ccc2[nH]c3c(c2c1)CCN1C(=O)CCC(c2ccc(F)cc2)=C31 [Example 13, 9-methoxy-1-(p-fluorophenyl)-2,3,4,6,7,12-hexahydroindolo [2,3-a]quinolizin-4-one]",29 min
7,"CCC1=C2c3[nH]c4ccc(OC)cc4c3CCN2C(=O)CC1 [Example 1, 9-methoxy-1-ethyl-2,3,4,6,7,12-hexahydroindolo [2,3-a] quinolizin-4-one]",28 to 101 min
8,"COc1ccc2[nH]c3c(c2c1)CCN1C(=O)CCC(c2ccccc2)=C31 [Example 4, 9-methoxy-1-phenyl-2,3,4,6,7,12-hexahydroindolo[2,3-a] quinolizin-4-one]",13 to 27 min
